PubChem BioAssay AID504339 (National Center for Advancing Translational Sciences (NCATS), 2011)
Hit rate of the full screen: of about 390,000 compounds, about 17,000 (4.4%) were called active. Inconclusive means that the source gave no clear call. Such entries were picked first, then a sample of the others. The call rests on the fitted dose curve; in most records, active means well fitted inhibition curve with a large enough effect; inconclusive means small, poorly fitted or top-dose-only effect; inactive means no such curve, though single readings can be large or run the other way. Potencies of inconclusive entries are doubtful fits and often do not repeat.

Molecular target: Lysine-specific demethylase 4A (Homo sapiens) (UniProt O75164)
Assay: qHTS Assay for Inhibitors of JMJD2A-Tudor Domain; further: nearly all actives have a fitted effect of over 50% in size
Conditions: AlphaScreen JMJD2A-Tudor / H3K4me3 peptide binding; activity change, negative = inhibition: at 114 µM (top of the series)
On the % scale 0 is the no-effect control and ±100 the full control effect; potency means the concentration at half of the fitted maximal effect; tags describe the fitted curve by direction and shape.

UniProt O75164, sequence (O75164 whole entry, looked up, the tested form may be a part): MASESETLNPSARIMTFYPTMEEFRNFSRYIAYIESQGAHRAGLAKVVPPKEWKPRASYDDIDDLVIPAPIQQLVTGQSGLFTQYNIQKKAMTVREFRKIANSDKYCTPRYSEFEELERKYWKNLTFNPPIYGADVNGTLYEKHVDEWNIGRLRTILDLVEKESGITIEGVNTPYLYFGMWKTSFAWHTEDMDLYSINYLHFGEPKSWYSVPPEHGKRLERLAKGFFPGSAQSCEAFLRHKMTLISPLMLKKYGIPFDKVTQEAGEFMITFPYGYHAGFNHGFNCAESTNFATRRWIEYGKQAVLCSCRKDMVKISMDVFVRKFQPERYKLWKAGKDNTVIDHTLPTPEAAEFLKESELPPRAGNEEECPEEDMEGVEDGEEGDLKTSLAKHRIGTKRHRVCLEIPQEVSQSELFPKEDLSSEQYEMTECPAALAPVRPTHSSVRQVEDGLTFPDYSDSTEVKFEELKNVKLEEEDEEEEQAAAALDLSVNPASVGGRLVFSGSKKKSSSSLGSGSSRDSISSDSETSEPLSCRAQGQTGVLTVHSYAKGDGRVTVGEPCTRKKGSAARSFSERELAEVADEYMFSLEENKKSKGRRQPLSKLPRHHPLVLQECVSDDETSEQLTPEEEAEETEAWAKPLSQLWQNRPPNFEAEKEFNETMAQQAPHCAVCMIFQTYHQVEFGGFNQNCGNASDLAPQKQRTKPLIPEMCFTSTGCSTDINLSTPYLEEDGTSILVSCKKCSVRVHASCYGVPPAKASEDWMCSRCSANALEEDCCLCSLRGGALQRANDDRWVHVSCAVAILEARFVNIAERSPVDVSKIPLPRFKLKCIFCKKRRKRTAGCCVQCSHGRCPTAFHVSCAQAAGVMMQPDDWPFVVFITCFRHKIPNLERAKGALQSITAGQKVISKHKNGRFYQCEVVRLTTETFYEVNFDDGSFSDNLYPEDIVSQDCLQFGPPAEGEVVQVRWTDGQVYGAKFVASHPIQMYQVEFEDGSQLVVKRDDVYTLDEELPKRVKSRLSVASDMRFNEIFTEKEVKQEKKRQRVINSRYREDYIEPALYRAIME

Structure (SMILES) | Potency | activity change, negative = inhibition
COc1cc(C#Cc2c(-c3cncn3C)n(C)c3ccc(-c4cnc(OC)nc4)cc23)cc(OC)c1 | inconclusive: 25.1 µM [inhibitor, partial curve] | 
Cc1onc(-c2ccccc2)c1C(=O)NC(=S)NNC(=O)c1ccc(O)cc1 | inconclusive: 100 µM [inhibitor, partial curve] | 
CCOC(=O)c1c(C)oc2nc(C)nc(Nc3cc(C)cc(C)c3)c12 |  | inactive: -8.41%
NC(=O)CCN1CCN(Cc2cn[nH]c2-c2cccc3ccccc23)CC1 |  | inactive: -10.4%
Cc1ccc(C)c(OCC(=O)Nc2ccc(N3CCOCC3)cc2N2CCOCC2)c1 | inconclusive: 50.1 µM [inhibitor, partial curve] | 
COc1ccc(-c2cc(OC(=O)c3ccccc3C)c3c(C)oc(C)c3c(=O)c2)cc1 | inconclusive: 50.1 µM [inhibitor, partial curve] | 
Cc1ccc(-n2ncc3c(N4CCCCC4)ncnc32)cc1Cl |  | inactive: 6.12%
OCC1(CCOc2ccccc2)CCN(CC2=Cc3cc(Cl)ccc3OC2)CC1 |  | inactive: -22.7%
COc1ccc(Nc2nc(N)c(C(=O)c3ccc(OC)cc3)s2)cc1 | inconclusive: 22.4 µM [inhibitor, full curve, poor fit] | 
Cc1ccc2cccc(OCC(=O)NCc3ccco3)c2n1 |  | inactive: -20.3%
COC(=O)c1cccc(N2C(=O)c3cccnc3C2=O)c1 | active: 44.7 µM | 
Cc1cccc(Nc2nc(N)nc(CN3CCN(Cc4ccc5c(c4)OCO5)CC3)n2)c1 | active: 50.1 µM | 
COc1cc2cc(C(c3nnnn3C3CCCCC3)N(C)C3CCCCC3)c(=O)[nH]c2cc1OC (stereo unspecified) | inconclusive: 50.1 µM [inhibitor, partial curve] | 
COc1cc(CNCCN(C)C)c(Br)cc1OC1CCCC1 |  | inactive: -31%
CC(C)(C)c1ccc(/C=N/NC(=S)NC2CCCCC2)cc1 | inconclusive: 100 µM [inhibitor, partial curve, poor fit] | 
COc1cc(C#CC#CCN2CCCCC2)ccc1O | inconclusive: 44.7 µM [inhibitor, partial curve] | 
CC(C)c1ccc(NC(=S)N2CCN(S(=O)(=O)c3ccccc3)CC2)cc1 |  | inactive: -20.7%
Cc1ccc(S(=O)(=O)CCc2nnc(NC(=O)c3cnccn3)s2)cc1 | inconclusive: 10 µM [inhibitor, partial curve, poor fit] | 
O=C(C1=C[C@H](c2ccc3c(c2)OCO3)C[C@H](OCCCCO)O1)N1CCN(Cc2ccc3c(c2)OCO3)CC1 | inconclusive: 100 µM [inhibitor, partial curve] | 
Cc1[nH]c2ccc(C(=O)NCCCN3CCCC3)cc2c1C | inconclusive: 39.8 µM [inhibitor, partial curve] | 
CC(=O)Nc1ccccc1-c1nc2ccccc2n(C(C)C(=O)Nc2cc(Cl)ccc2C)c1=O (stereo unspecified) |  | inactive: -5.96%
Cc1ccc(NC(=S)NNC(=S)NCc2ccccc2)cc1 | inconclusive: 2.51 µM [inhibitor, full curve, poor fit] | 
CC(=O)Nc1ccc(NC(=O)CCc2c(C)nc3c(c(C)nn3-c3ccc(C)cc3)c2C)cc1 |  | inactive: -12.1%
C/C(=N\OCC(=O)NC(C)C)c1cccs1 | inconclusive: 25.1 µM [inhibitor, single point] | 
O=C(Nc1nc(-c2cc(F)ccc2F)cs1)C1=COCCO1 |  | inactive: -9.66%
Cc1ccccc1-n1c(-c2ccc(Br)o2)n[nH]c1=S | active: 25.1 µM | 

Structure (SMILES) | Potency | activity change, negative = inhibition
COc1ccc(-c2nc(N)nc(C(F)(F)F)c2-c2ccccc2OC)c(O)c1 | inconclusive: 56.2 µM [inhibitor, partial curve] | 
O=c1c2cc(F)ccc2sn1-c1ccccc1 | active: 8.91 µM | 
COc1ccc(-c2ccc3ncnc(NCCc4cnc[nH]4)c3c2)cc1OC | inconclusive: 56.2 µM [inhibitor, partial curve] | 
COc1cccc(CCc2nnc(CCC(=O)N3CCN(Cc4ccccn4)CC3)o2)c1 | inconclusive: 56.2 µM [inhibitor, partial curve, poor fit] | 
COc1ccc(C)c2sc(N(CCCN(C)C)C(=O)c3ccc(S(=O)(=O)N4CCc5ccccc5C4)cc3)nc12 |  | inactive: -34.9%
Cc1onc(-c2ccccc2Cl)c1C(=O)Nc1cccc(-c2nc3ncccn3c2C)c1 |  | inactive: -17.1%
COc1ccc(/C=C2\CCCC(C(=O)C(F)(F)F)=C2O)cc1 |  | inactive: -3.64%
CN(C)CCNS(=O)(=O)c1ccc(N2CCN(c3ccc(F)cc3)CC2)c([N+](=O)[O-])c1 | inconclusive: 56.2 µM [inhibitor, partial curve] | 
COc1ccc(C(=O)Nc2c(O)ccc3ccccc23)cc1 | active: 79.4 µM | 
COc1ccc(NS(=O)(=O)c2ccc(N3CC(O)=C(c4ccccc4)C3=N)cc2)cc1 |  | inactive: -5.99%
Cc1ccc(C(=O)/C=C/c2cc(Br)cc(Br)c2O)o1 | inconclusive: 28.2 µM [inhibitor, partial curve] | 
Cc1ccc(NC(=O)c2c(C)oc3ccc(O)c(CN(C)Cc4ccccc4)c23)c(C)c1 |  | inactive: -18.8%
COc1cccc(CN2C(=NC(=O)C3CC3)SC3CS(=O)(=O)CC32)c1 (stereo unspecified) |  | inactive: -2.78%
C#CCOCCOCCOCCNc1nc(N2CCOCC2)nc(N2CCN(C(=O)[C@H]([C@@H](C)CC)n3cc(CCCCN)nn3)CC2)n1 | inconclusive: 79.4 µM [inhibitor, single point] | 
CC(=O)NC1=NN(C(C)=O)C(c2ccccn2)S1 (stereo unspecified) | inconclusive: 89.1 µM [inhibitor, single point] | 
Cc1[nH]n(-c2ccccc2)c(=O)c1N=Nc1ccccc1C(=O)N1CCCCC1 | inconclusive: 2.51 µM [inhibitor, full curve, poor fit] | 
O=C(CNc1ccc(Br)cc1)c1ccc(O)cc1 | inconclusive: 50.1 µM [inhibitor, partial curve] | 
O=c1c2ccccc2sn1-c1nccs1 | active: 5.62 µM | 
COC(=O)Cc1ccc(NC(=S)Nc2ccc(N3CCOCC3)cc2)cc1 |  | inactive: -19.1%
CC1=C([N+](=O)[O-])C(c2ccc(O)c(O)c2)NC(=O)N1 (stereo unspecified) |  | inactive: -19.2%
COc1ccc(NC(=O)CCn2c(-c3ccc(F)cc3)cc(C(C)=O)c2C)c(OC)c1 | inconclusive: 50.1 µM [inhibitor, partial curve, poor fit] | 
CCc1ccc(CNC(=O)c2sc3nc[nH]c(=O)c3c2C)cc1 |  | inactive: -16.8%
C#CCOc1ccc(/C=C2/C(=O)NN(c3ccccc3)C2=O)cc1OC | inconclusive: 50.1 µM [inhibitor, partial curve] | 
O=C(O)CSc1nnc(-c2ccncc2)n1-c1ccc(Cl)cc1 |  | inactive: -26.1%
CCn1c(NC(C)=O)nc2ccccc21 | active: 39.8 µM | 
Nc1cc([N+](=O)[O-])ccc1Nc1ccccc1 |  | inconclusive: -50.7% [inhibitor]

Structure (SMILES) | Potency | activity change, negative = inhibition
Cc1cccc(N2CCN(C(=O)c3cccn3-c3nnc(N4CCCCC4)s3)CC2)c1C | inconclusive: 56.2 µM [inhibitor, partial curve, poor fit] | 
FC(F)(F)C1=Nc2cccc3cccc(c23)N1 | inconclusive: 35.5 µM [inhibitor, partial curve, poor fit] | 
O=C(NCC(=O)N(CCc1ccccc1)C(C(=O)NC1CCCCC1)c1ccncc1)c1ccco1 (stereo unspecified) |  | inactive: -8.61%
O=S(=O)(Nc1cc2nc3ccccc3nc2n1Cc1ccccc1)c1ccc(Cl)cc1 |  | inactive: 19.1%
O=[N+]([O-])c1ccc(-c2ccc(/C=N/n3cnnc3)o2)c(Br)c1 | inconclusive: 63.1 µM [inhibitor, partial curve, poor fit] | 
C=CCOC(=O)C1=C(C)N=c2s/c(=C3\C(=O)N(CC(=O)O)c4ccccc43)c(=O)n2C1c1ccc(OC)cc1 (stereo unspecified) | inconclusive: 3.16 µM [inhibitor, partial curve] | 
O=C(NC(=S)NC1C2CC3CC(C2)CC1C3)c1ccccc1 (stereo unspecified) | inconclusive: 56.2 µM [inhibitor, partial curve] | 
C/C(CCC1CC(C)OC1=O)=N/Nc1nc(-c2ccccc2)cs1 (stereo unspecified) | inconclusive: 22.4 µM [inhibitor, full curve] | 
CC(C)Oc1ccccc1C1CC(=O)Nc2cc3c(cc21)OCCO3 (stereo unspecified) | inconclusive: 28.2 µM [inhibitor, full curve] | 
O=C(COC(=O)c1ccc(Br)o1)Nc1ccc2[nH]c(=O)[nH]c2c1 |  | inactive: -9.8%
COC(=O)C1(CCSC)NC(c2ccc(O)c(OC)c2)C2C(=O)N(c3ccc(C)cc3)C(=O)C21 (stereo unspecified) |  | inactive: -12.6%
NNc1nc2c(F)cccc2s1 | active: 89.1 µM | 
Cc1ccc(Cl)c(OCC(=O)Nc2sc(C)c(C)c2C#N)c1 |  | inactive: -21.9%
O=C(Cc1ccc(-n2c(=S)[nH]c3ccccc3c2=O)cc1)N1CCC(N2CCCCC2)CC1 |  | inactive: -19.3%
C=CCc1cc(Cl)ccc1OCCCn1ccnc1 | inconclusive: 35.5 µM [inhibitor, partial curve, poor fit] | 
C=CCSC1=N/C(=C\C=C\c2ccco2)C(=O)S1 | active: 44.7 µM | 
Cc1nnc(SCC(=O)NC(C)(C)C)n1NCc1cccc(Br)c1 |  | inactive: -9.66%
Cc1scc(CN2CCN(c3ccc(F)cc3)CC2)c1C | inconclusive: 56.2 µM [inhibitor, partial curve] | 
CCOC(=O)c1ccccc1NC(=O)c1cc2c(s1)-c1ccccc1SC2 |  | inactive: 55%
Cc1ccc(-c2nc3ccccn3c2Nc2ccc3c(c2)OCCO3)o1 | active: 50.1 µM | 
CC(C)CCN1CCN(C2CCN(c3ccccc3)CC2)CC1CCO (stereo unspecified) |  | inactive: -23.2%
CSc1nc(=S)cc(C)[nH]1 | active: 25.1 µM | 
Fc1cccc(F)c1CN1CCN(c2ncccn2)CC1 | inconclusive: 56.2 µM [inhibitor, partial curve] | 
Nc1c(C(=O)O)sc2nc(-c3ccccc3)cc(-c3ccc(Cl)cc3)c12 | inconclusive: 50.1 µM [inhibitor, full curve, poor fit] | 
